± gives the standard deviation of the averaged measurements. In all, about 33,000 sequences were measured (“E-score (dimensionless, -0.5 to 0.5)”: median about -0.046, highest 2% from about 0.36 on). The list shows a part of the results.
system: T1, SpTbr T-box DNA-binding domain (GST fusion); assay: PBM E-score of 8-mer (E-score (dimensionless, -0.5 to 0.5)); Tbr is Tbrain of the sea star Patiria miniata (Pm) or the sea urchin Strongylocentrotus purpuratus (Sp); higher = stronger binding preference; most listed sequences are background and not binding sites; conditions: the construct has about 5 more residues each side
T1 sequence: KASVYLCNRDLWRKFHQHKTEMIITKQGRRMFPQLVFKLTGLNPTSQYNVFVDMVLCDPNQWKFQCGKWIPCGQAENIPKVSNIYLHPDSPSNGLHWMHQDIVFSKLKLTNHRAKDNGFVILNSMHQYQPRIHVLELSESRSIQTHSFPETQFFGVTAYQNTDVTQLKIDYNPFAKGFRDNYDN
Protocol: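 Universal protein-binding microarray (Agilent AMADID 016060, 60-bp probes with a 35-bp variable region) incubated with 200 nM GST-fused Strongylocentrotus purpuratus Tbr T-box DNA-binding domain (residues 362-554) in PBS pH 7.5. Scored for every ungapped 8-mer (given with its reverse complement) as E-score (range -0.5 to 0.5; >0.45 counts as bound) and Z-score of median probe intensity. Two replicate arrays (datasets 1 and 2).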
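Further: protein at 200 nM in PBS on universal double-stranded arrays.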

Sequence | PBM E-score of 8-mer
CATATCAA | -0.0351 ± 0.016
GGCCCCAA | 0.164 ± 0.04
CGCTAGGC | 0.0913 ± 0.013
AAGATAGA | -0.291 ± 0.02
CAGGTATA | -0.104 ± 0.037
AGCCGAAT | -0.258 ± 0.018
AACGCTGG | 0.0849 ± 0.037
ACGTATTC | -0.04 ± 0.031
CCTTATCG | 0.0879 ± 0.03
GCTTCGCC | -0.0539 ± 0.012
AGGTACGC | -0.197 ± 0.01
CAGATTCG | -0.0135 ± 0.012
CCAGACCC | -0.0884 ± 0.053
ACCAGATG | -0.273 ± 0.016
CCGAGGGA | -0.253 ± 0.04
CGGGCCCC | -0.2465 ± 0.0019
GGTGACAC | 0.4606 ± 0.0026
AGGCGCCA | 0.3542 ± 0.0011
GGGACTCA | -0.308 ± 0.04
TCGCACGA | 0.316 ± 0.0081
CCTGCTCC | -0.151 ± 0.018
AATCATGA | -0.0643 ± 0.051
TCAAGACA | 0.0813 ± 0.021
AGTTTGGC | 0.0081 ± 0.082
AATAAAAG | -0.057 ± 0.055

Sequence | PBM E-score of 8-mer
CCAAGTCA | 0.0222 ± 0.019
AAAAACTT | -0.162 ± 0.046
CAAACAGG | -0.111 ± 0.019
CAGCGGGC | -0.172 ± 0.008
CAGCTCCA | -0.0379 ± 0.11
AATACAAG | -0.0808 ± 0.013
CCGCCCCC | -0.2141 ± 0.0011
CTCGAAAC | -0.0914 ± 0.049
GCTTCATA | -0.0722 ± 0.021
AAGCAAAA | -0.0778 ± 0.031
CACACGGG | 0.147 ± 0.039
CTGTGGGA | 0.105 ± 0.057
GCGATAGC | 0.148 ± 0.022
TAGAGAAA | -0.244 ± 0.085
CTAATTTC | -0.118 ± 0.12
CAAATACA | -0.2 ± 0.042
ATGCTTGG | -0.225 ± 0.044
CTACGAGA | -0.0694 ± 0.018
ATCGATCC | 0.0474 ± 0.016
CATGCGCG | 0.221 ± 0.023
AAGAAGTC | -0.0241 ± 0.069
AGAAGAGA | -0.161 ± 0.024
ATTTTTCA | -0.113 ± 0.056
CCTCCCCG | -0.0418 ± 0.021
TAACCGCA | 0.0176 ± 0.021

Sequence | PBM E-score of 8-mer
AGGAATTA | -0.188 ± 0.01
CGATCAAA | -0.0526 ± 0.07
GGGTTAAA | -0.213 ± 0.063
AATGGAGC | -0.269 ± 0.035
GGTCCGAC | -0.121 ± 0.093
CAGTTTCG | 0.0306 ± 0.013
CTTCTGTA | -0.0583 ± 0.011
GCGACCGA | 0.176 ± 0.006
AACTTCCC | -0.0915 ± 0.064
CGAGAAAG | 0.117 ± 0.017
AAGTTTGC | 0.0331 ± 0.095
CGAGCAGA | -0.0372 ± 0.047
GCCGCGGC | -0.115 ± 0.16
AACGCACA | 0.0595 ± 0.0009
ATCATGGA | -0.315 ± 0.01
ATTTCCTC | -0.11 ± 0.013
CATAGCGG | -0.0417 ± 0.011
AACTCGTA | 0.0283 ± 0.013
CGCTCTGC | 0.0215 ± 0.0072
GAACTTCC | -0.172 ± 0.029
AGATATCA | 0.145 ± 0.0086
TGGTATAA | -0.152 ± 0.0058
CATAACGC | 0.21 ± 0.014
CATAGCGC | 0.0682 ± 0.018
AAACGAAA | -0.116 ± 0.09

Sequence | PBM E-score of 8-mer
AAGCTCAG | -0.0825 ± 0.03
TAAGCTCA | -0.166 ± 0.12
CGTTTGAG | -0.201 ± 0.066
CCACACGA | 0.0789 ± 0.12
AACGCGTT | 0.146 ± 0.013
GTTCCCCA | -0.0542 ± 0.052
TAGGAACA | 0.0112 ± 0.037
GATGTGAA | 0.2 ± 0.0079
GATATACC | -0.0949 ± 0.018
AAACTTCC | -0.271 ± 0.033
CCATACCC | -0.247 ± 0.031
CGGAGACA | -0.0395 ± 0.021
CTGTGGGC | -0.0476 ± 0.071
GGCACCGA | -0.122 ± 0.1
CTGGGAGC | -0.0158 ± 0.037
AGGAGGGC | -0.173 ± 0.085
CCATTCCA | -0.17 ± 0.006
AACGCGTC | 0.188 ± 0.014
AAAACATC | -0.0945 ± 0.036
CAACAGAG | -0.147 ± 0.059
GCGAAATA | 0.227 ± 0.096
CGCGGTGA | 0.0943 ± 0.12
GAAGCAAC | 0.0738 ± 0.044
ACCCTTAT | -0.0625 ± 0.014
CCCCCGGA | -0.275 ± 0.0072

Sequence | PBM E-score of 8-mer
AATCGCGC | 0.332 ± 0.01
AAAATTCG | -0.169 ± 0.082
AGCTCACC | 0.00145 ± 0.071
AGTCCGAG | -0.0479 ± 0.0029
ACAACCAT | 0.0868 ± 0.041
AGCACTGG | -0.0357 ± 0.007
CCACTGAG | -0.0982 ± 0.017
GATCCAAA | -0.0599 ± 0.059
TACTACTA | -0.272 ± 0.013
ACCGCATC | 0.0471 ± 0.066
CGCGATTC | 0.204 ± 0.046
AGATCACC | -0.0429 ± 0.029
ACACTCGT | 0.279 ± 0.022
CTCATCTA | -0.272 ± 0.0055
TACCGGGA | -0.208 ± 0.0062
AGTACAGA | -0.0306 ± 0.028
AACATTAA | -0.152 ± 0.016
CGAATCAG | -0.0568 ± 0.05
ATACCTAG | -0.194 ± 0.018
AAGAGGAG | -0.00225 ± 0.017
AGTGTGTA | 0.229 ± 0.018
GAGTTATC | 0.0341 ± 0.075
CACCTTTA | 0.414 ± 0.0042
GATTCAAA | -0.142 ± 0.062
CATCCCAC | 0.158 ± 0.072

Sequence | PBM E-score of 8-mer
ACTAATGG | 0.0172 ± 0.058
GATAGTGC | 0.0259 ± 0.04
CGGCGCCA | 0.14 ± 0.024
ACGCCCCG | 0.184 ± 0.052
CCTGACAC | 0.427 ± 0.01
CAGAGCCG | -0.0628 ± 0.02
AATGTCCA | -0.218 ± 0.051
CAAATTCA | 0.215 ± 0.018
AACAAGCT | -0.156 ± 0.055
GTTTGGGA | -0.091 ± 0.036
CCACCCGC | 0.105 ± 0.028
ACACCACT | 0.269 ± 0.02
GTAATTGA | 0.0382 ± 0.016
GATTTACC | -0.104 ± 0.03
CTAGCTAC | 0.0263 ± 0.029
ATGGCAAT | 0.0133 ± 0.11
GACCGGGA | -0.171 ± 0.049
GCATAGTA | -0.142 ± 0.068
AAGACGTG | 0.092 ± 0.057
AGATTGAT | -0.186 ± 0.031
GCCGTCTA | -0.297 ± 0.041
CATGTTGA | 0.122 ± 0.0077
CCATGCTA | -0.141 ± 0.0031
ATCTGTCG | 0.236 ± 0.012
ATCCCTTA | -0.196 ± 0.0044

Sequence | PBM E-score of 8-mer
TCTTCAAA | -0.0718 ± 0.061
CACACCTG | 0.479 ± 0.0072
ATAATGAG | -0.0254 ± 0.02
GCCTACCA | 0.00846 ± 0.028
AGGCACGG | -0.0638 ± 0.014
CTCAGTTC | -0.00872 ± 0.076
AAACTGAT | 0.00505 ± 0.0057
AAGTCTTA | -0.0637 ± 0.085
GTAACAAC | 0.152 ± 0.039
GGCGTGCA | 0.0836 ± 0.055
GCTAACAA | 0.293 ± 0.03
GTGCATGA | -0.124 ± 0.085
ACCATAGA | -0.121 ± 0.04
CGTCGATC | 0.0266 ± 0.0026
CTCATCGC | 0.0778 ± 0.036
CTAACAAA | 0.1482 ± 0.00042
TACACACA | 0.255 ± 0.029
AACCAGTA | -0.0434 ± 0.0093
CGATGTTA | -0.0807 ± 0.0019
CCTGTGCG | 0.125 ± 0.025
CAACTTAA | 0.0683 ± 0.1
AGTAGAAA | -0.131 ± 0.051
CACTTACC | 0.249 ± 0.049
CGGGGAAA | -0.111 ± 0.013
TGCCATAA | -0.00072 ± 0.032

Sequence | PBM E-score of 8-mer
GAAGTAAC | -0.0552 ± 0.026
TACCCTAA | -0.0552 ± 0.034
GTGCAACA | 0.15 ± 0.0074
GTGTGATA | 0.459 ± 0.0047
AGGTTTAT | -0.113 ± 0.038
AGGGTACC | -0.119 ± 0.026
GCGACATA | 0.18 ± 0.031
AATTCACC | -0.0331 ± 0.031
GATATCCC | -0.172 ± 0.075
AAGATGGC | -0.0186 ± 0.037
ATGATCGA | -0.0315 ± 0.09
ACGGATCC | -0.158 ± 0.061
CAATGTGC | 0.224 ± 0.032
GATATGCA | 0.00558 ± 0.032
GACGTTAC | -0.0566 ± 0.094
GTCTGGAA | -0.195 ± 0.017
AAGGAGCG | -0.175 ± 0.012
ATTATGCC | -0.192 ± 0.042
CAGACATG | -0.00281 ± 0.052
AGCTACCC | -0.299 ± 0.043
CGACCGTC | 0.0112 ± 0.079
ACAACCGA | 0.0893 ± 0.019
AATTCACT | -0.0166 ± 0.019
AGCGCGCG | 0.131 ± 0.084
AAACCTCG | 0.0284 ± 0.048

Sequence | PBM E-score of 8-mer
ACAGTCCT | -0.0271 ± 0.062
ATCCTCAC | 0.347 ± 0.013
ATTGAAGA | -0.24 ± 0.0088
AGTGAGAA | 0.422 ± 0.014
GCTCGCTA | 0.015 ± 0.0023
AGTACCAT | -0.0603 ± 0.023
ATAGGAGG | 0.0196 ± 0.0055
TGGAATAA | -0.142 ± 0.015
CGGTATCC | -0.302 ± 0.053
ACCACACT | 0.328 ± 0.0063
TTACCCAA | -0.0514 ± 0.0097
CTGAGGGC | -0.0979 ± 0.0046
ATAAATAT | -0.01 ± 0.032
TAGTGCGA | 0.4025 ± 0.0017
CCCTCGCG | 0.159 ± 0.035
TAGCTTGA | -0.286 ± 0.051
GACGAAGA | -0.023 ± 0.028
ATAATTGA | -0.00127 ± 0.01
CGTGTAAC | 0.134 ± 0.0023

Source: the supplement of paper PMC4166925
